{"source": "PubChem BioAssay AID686978", "about": "(National Center for Advancing Translational Sciences (NCATS), 2013)", "note": "The whole screen tested about 420,000 compounds, of which about 64,000 (15%) were called active. The shares of active, inactive and inconclusive entries below differ from those in the screen. Calls come from the whole dose curve; as a rule, active = well fitted inhibition curve with a large enough effect; inconclusive = small, poorly fitted or top-dose-only effect; inactive = flat fitted curve, though single readings scatter. Potencies of inconclusive entries are left out as doubtful fits. % is set by controls: 0 for no effect and ±100 for the full control effect; potency is the fitted concentration of half-maximal effect; tags give direction and shape of the fitted curve."}
{"experiment": "qHTS for Inhibitors of human tyrosyl-DNA phosphodiesterase 1 (TDP1): qHTS in cells in absence of CPT; note: nearly all actives have a fitted effect of over 55% in size", "details": "DT40 Tdp1-/- hTDP1 cells, no CPT, ATP luminescence, 48 h; activity change, negative = growth inhibition: at 46.2 µM (top of the series) unless noted", "procedure,_shortened": "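Readout: luminescence from CellTiter-Glo after 30 min in the dark at RT. Cells: DT40 Tdp1-/- with stable hTDP1, 400/well. Exposure: compounds alone, ≥48 hr, 37 °C.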"}
{"smiles": "COc1ccccc1N1CCN(Cc2cc(COC(C)C)c3cccnc3c2O)CC1", "Potency": "active: 4.61 µM"}
{"smiles": "O=C(CN1C(=O)S/C(=C\\C=C\\c2ccccc2)C1=O)Nc1cccc(O)c1", "Potency": "inconclusive [inhibitor, single point]"}
{"smiles": "CC(=O)N1N=C(c2cccc([N+](=O)[O-])c2)OC1(C)CC(=O)Nc1ccccc1", "note": "(stereo unspecified)", "Potency": "inconclusive [inhibitor, single point]"}
{"smiles": "CN1OC[C@@H]2CN[C@H](c3cccc(Oc4ccccc4)c3)C[C@@H]21", "Potency": "inactive"}
{"smiles": "CCN(CC)S(=O)(=O)c1cccc(N=Nc2c(O)c3ccccc3oc2=O)c1", "Potency": "inconclusive [inhibitor, partial curve]"}
{"smiles": "COc1ccc(C(=O)Nc2cc(C(C)=O)c(C)oc2=O)cc1", "Potency": "inconclusive [inhibitor, single point]"}
{"smiles": "Cc1ccc(C2Nc3ccccc3C(=O)N2Cc2ccco2)cc1", "note": "(stereo unspecified)", "Potency": "inconclusive [inhibitor, single point]"}
{"smiles": "CCOC(=O)N1CCN(c2nc(C(F)(F)F)nc3c(C)cc(C)cc23)CC1", "Potency": "inconclusive [inhibitor, partial curve]"}
{"smiles": "CCOC(=O)c1c(NC(=O)CN2CCN(c3ccc(Cl)cc3)CC2)sc(C)c1C", "Potency": "inconclusive [inhibitor, single point]"}
{"smiles": "COc1ccc(OC)c(S(=O)(=O)NC2CCCCNC2=O)c1", "note": "(stereo unspecified)", "Potency": "inactive"}
{"smiles": "CCc1nnc(NC(=O)CSc2ncnc3c2oc2ccccc23)s1", "Potency": "inactive"}
{"smiles": "O=C(NC1CCCC1)C1c2ccccc2OCC(=O)N1CCc1c[nH]c2ccccc12", "note": "(stereo unspecified)", "Potency": "inconclusive [inhibitor, single point]"}
{"smiles": "Cc1nc(N(CCO)C2CCCCC2)c2nnn(Cc3ccccc3)c2n1", "Potency": "inconclusive [inhibitor, single point]"}
{"smiles": "O=C(O)/C=C/c1ccc2noc(-c3ccccc3)c2c1", "Potency": "inconclusive [inhibitor, partial curve, poor fit]"}
{"smiles": "Cc1ccccc1C(=O)NC(NC(=O)c1ccccc1C)c1cccc([N+](=O)[O-])c1", "Potency": "inconclusive [inhibitor, partial curve]"}
{"smiles": "COc1ccc(/C=C\\c2onc(C)c2S(=O)(=O)N2CCC(C(=O)Nc3ccc(C)c(F)c3)CC2)cc1", "Potency": "active: 6.51 µM"}
{"smiles": "N#CCCCSc1nnc(-c2ccc(Cl)cc2)n1-c1ccccc1", "Potency": "inconclusive [inhibitor, partial curve]"}
{"smiles": "O=C(NCCS(=O)(=O)N1CCN(c2cccc(Cl)c2)CC1)C1CC1", "Potency": "inconclusive [inhibitor, single point]"}
{"smiles": "Cn1c(-c2ccccc2)c(C(=O)CCl)c2ccccc21", "Potency": "active: 3.26 µM"}
{"smiles": "Cc1cc(N)n2nc(-c3ccccc3)cc2n1", "Potency": "inconclusive [inhibitor, single point]"}
{"smiles": "Cc1cc2ccc(C)c(C)c2nc1SCC(=O)c1cccs1", "Potency": "inconclusive [inhibitor, single point]"}
{"smiles": "CC(C)C[C@@H]1COc2cccc(N(C)CCO)c2S(=O)(=O)N1", "Potency": "inconclusive [inhibitor, partial curve, poor fit]"}
{"smiles": "Fc1ccc(-c2noc3ncnc(NCc4cccc(Cl)c4)c23)cc1", "Potency": "inconclusive [inhibitor, single point]"}
{"smiles": "COc1ccc(NS(=O)(=O)c2cc(NC(=O)/C=C/c3ccccc3OC)ccc2N2CCCCC2)cc1", "Potency": "inactive"}
{"smiles": "CC(Sc1nc(N)cc(N)n1)C(=O)NCCC1=CCCCC1", "note": "(stereo unspecified)", "Potency": "inactive"}
{"smiles": "c1ccc(Cc2nnc3sc(-c4ccc5c(c4)OCO5)nn23)cc1", "Potency": "inactive"}
{"smiles": "Cc1ccc(C)c(NC(=O)COc2cccc3c2CCN(Cc2ccccc2)C3=O)c1", "Potency": "inconclusive [inhibitor, single point]"}
{"smiles": "CCN(CCCn1c(SCC#N)nc2ccccc2c1=O)c1ccccc1", "Potency": "inconclusive [inhibitor, single point]"}
{"smiles": "COc1ccc(-c2noc(CCC(=O)Nc3ccccc3Cl)n2)cc1OC", "Potency": "inconclusive [inhibitor, single point]"}
{"smiles": "COc1ccc(C(=O)N2CCC(C(=O)Nc3ccc(OC)c(OC)c3)CC2)cc1", "Potency": "inactive"}
{"smiles": "Cc1ccc(N2CC(NC(=O)Cc3ccc(F)cc3)CC2=O)cc1C", "note": "(stereo unspecified)", "Potency": "inconclusive [inhibitor, single point]"}
{"smiles": "COc1ccccc1CNC(=O)c1cnn(-c2ccc(F)cc2F)c1C1CCN(C(=O)OC(C)(C)C)CC1", "Potency": "inconclusive [inhibitor, single point]"}
{"smiles": "N=C(N)SCc1cn2ccccc2n1", "Potency": "inconclusive [inhibitor, single point]"}
{"smiles": "COCC(C)n1c(C)cc(C(=O)COC(=O)c2ccc(N3CCCC3=O)cc2)c1C", "note": "(stereo unspecified)", "Potency": "inactive"}
{"smiles": "Cn1c(SCc2ccccc2)nnc1-c1ccc2nonc2c1", "Potency": "inactive"}
{"smiles": "COc1ccccc1C(=O)NNC(=O)c1ccc(NC(=O)c2ccccc2)cc1", "Potency": "inactive"}
{"smiles": "OCC(O)C1OC(c2ccccc2)OC(CO)C1O", "note": "(stereo unspecified)", "Potency": "inactive"}
{"smiles": "CC(OC(=O)c1ccc(S(=O)(=O)N(C)c2ccccc2)cc1)C(=O)NCCC1=CCCCC1", "note": "(stereo unspecified)", "Potency": "inconclusive [inhibitor, single point]"}
{"smiles": "O=C(Nc1ccc(N2CCN(C(=O)c3ccco3)CC2)cc1)c1ccccc1", "Potency": "inactive"}
{"smiles": "O=C1C2C3CCC(C3NCc3ccccc3)C2C(=O)N1Cc1ccccc1", "note": "(stereo unspecified)", "Potency": "inconclusive [inhibitor, single point]"}
{"smiles": "CC(=O)NC12CC3CC(C1)CC(C(=O)N1CCN(S(=O)(=O)c4ccc(Cl)s4)CC1)(C3)C2", "Potency": "inconclusive [inhibitor, single point]"}
{"smiles": "COc1cc2c(cc1OC)CN(c1nc(CN3CCCC3)nc3sc(C)c(C)c13)CC2", "activity change, negative = growth inhibition": "inconclusive: -30.2% [inhibitor]"}
{"smiles": "COc1ccccc1N1CCN(C(=O)c2oc3ccccc3c2N)CC1", "Potency": "inconclusive [inhibitor, single point]"}
{"smiles": "CCOc1cc(C2CC(=O)Nc3c2c(C)nn3-c2nc(C)cc(C)n2)ccc1O", "note": "(stereo unspecified)", "Potency": "inconclusive [inhibitor, single point]"}
{"smiles": "Cc1ccc(S(=O)(=O)c2c(C)cc(C)nc2Cl)c(C)c1", "Potency": "inconclusive [inhibitor, single point]"}
{"smiles": "COC(=O)[C@]12CCCCC=C1N(CCC1=CCCCC1)C(=O)[C@H](CC(=O)N1CCN(C(=O)c3ccco3)CC1)C2", "Potency": "active: 25.9 µM"}
{"smiles": "COC(=O)c1cccnc1-n1c(=O)c2cccnc2n(CC(=O)Nc2cccc(C(F)(F)F)c2)c1=O", "Potency": "inactive"}
{"smiles": "CC1CC(=O)N(CC(=O)NCc2ccccc2)c2ccccc2S1(=O)=O", "note": "(stereo unspecified)", "Potency": "inactive"}
{"smiles": "CC1CCN(S(=O)(=O)c2ccc3nc(N4CCN(c5ccccc5F)CC4)ccc3c2)CC1", "Potency": "inconclusive [inhibitor, partial curve]"}
{"smiles": "CC(=O)c1ccc(OCc2cc(C(=O)N3CCC(c4ccncc4)CC3)no2)cc1", "Potency": "active: 5.8 µM"}
{"smiles": "C=CCSc1nnc(C2CCCN(Cc3ccccc3O)C2)n1C", "note": "(stereo unspecified)", "Potency": "inactive"}
{"smiles": "O=C1CCS/C(=N\\N=C\\c2ccc(Cl)cc2Cl)N1", "Potency": "inconclusive [inhibitor, single point]"}
{"smiles": "Cc1[nH]c2ccccc2c1CCCO", "Potency": "inconclusive [inhibitor, partial curve, poor fit]"}
{"smiles": "COc1ccc(/C=C(\\C#N)c2nc(-c3cc4ccccc4oc3=O)cs2)cc1OC", "Potency": "inactive"}
{"smiles": "O=C(NCc1ccc2c(c1)OCO2)c1ccccc1", "Potency": "inactive"}
{"smiles": "O=C(c1ccc(CS(=O)(=O)c2c(Cl)cccc2Cl)o1)N1CCN(c2ccccn2)CC1", "Potency": "inconclusive [inhibitor, single point]"}
{"smiles": "COc1ccc(C2C3=C(CC(C)(C)CC3=O)Oc3ncn(Cc4ccccc4)c(=N)c32)cc1", "note": "(stereo unspecified)", "Potency": "inactive"}
{"smiles": "CCC(=O)N1CCc2cc(S(=O)(=O)CCC(=O)Nc3ccc(OC)c(OC)c3)ccc21", "Potency": "inactive"}
{"smiles": "COC(=O)c1cc(OC)c(OC)cc1NC(=O)Nc1ccc(OC)cc1", "Potency": "inactive"}
{"smiles": "FC(F)(F)c1cccc(N2CCN(Cc3nnc(-c4ccccc4)o3)CC2)c1", "Potency": "inconclusive [inhibitor, single point]"}
{"smiles": "O=C(/C=C/c1ccccc1)Nc1cc(-c2nc3ccccc3o2)ccc1Cl", "Potency": "inactive"}
{"smiles": "O=C(N/N=C/c1cc([N+](=O)[O-])ccc1O)C(O)(c1ccccc1)c1ccccc1", "Potency": "active: 16.4 µM"}
{"smiles": "CCCc1ccc(OCc2nc(-c3ccc(NC(=O)c4cccs4)cc3)no2)cc1", "Potency": "inconclusive [inhibitor, partial curve]"}
{"smiles": "COc1ccccc1CNC(=O)c1cn(C)c2ccc(S(=O)(=O)N3CCCC3)cc2c1=O", "Potency": "inconclusive [inhibitor, single point]"}
{"smiles": "COc1cc(C)ccc1OCCSc1nnc(-c2cccs2)o1", "Potency": "inconclusive [inhibitor, single point]"}
{"smiles": "COc1ccc(Cl)cc1NC(=S)N1CCCCCC1", "Potency": "inconclusive [inhibitor, single point]"}
{"smiles": "O=S(=O)(NC(=S)Nc1ccccc1)c1ccc(F)cc1", "Potency": "inactive"}
{"smiles": "Cc1cccc(C)c1NC(=O)c1c(O)c2ccccc2[nH]c1=O", "Potency": "inconclusive [inhibitor, single point]"}
{"smiles": "CC(/C=C/c1cccs1)=C\\C(=O)O", "Potency": "inactive"}
{"smiles": "O=C(Cc1ccc(NC(=O)C2CCN(C(=O)C3CCCCC3)CC2)cc1)Nc1cccc(C(=O)N2CCCCC2)c1", "Potency": "inactive"}
{"smiles": "O=C1N[C@@H](Cc2ccccc2)C(=O)N2[C@@H]3N(S(=O)(=O)c4ccccc4)c4ccccc4[C@]3(Br)C[C@@H]12", "Potency": "inconclusive [inhibitor, single point]"}
